{
  "source": "the RNAGym collection of RNA variant scans (doi:10.1093/nar/gkz1192)",
  "parents": {"B1": {"name": "CPEB3 Ribozyme (parent)", "chain": "UAACAGGGGGCCACAGCAGAAGCGUUCACGUCGCAGCCCCUGUCAGAUUCUGGUGAAUCUGCGAAUUCUGCUGUAUAUCUC"}},
  "note": "Read counts are not given, so values of variants with three or more changes are uncertain.",
  "data": [
    {"variants_of": "B1", "experiment": "self-cleavage, relative activity (ratio to wild type); higher = more cleavage; in vitro, sequencing", "method_in_brief": "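Relative activity compares each variant's cleaved/total read fraction with that of the unmutated ribozyme. To get these fractions, barcoded CPEB3 ribozyme libraries from rounds of error-prone PCR were transcribed with T7 RNA polymerase for 5 hours at 37°C and then given 15 min of DNase I treatment before EDTA was added. The RNAs were reverse transcribed with template switching and sequenced on Illumina, and DNA sequencing linked barcodes to variants. A minimum of 5 reads applied, and three batches were averaged.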", "values": [
      {"variant": "UAACAGGGGGCCACAGCAGAAGCGCUCACGUCGCAGCCCCUGCCAGAUUCAGGUGAAUCUGCGAAUUCUGCUGUAUAUCUC", "note": "[U25C U43C U51A]", "self-cleavage": 0.25},
      {"variant": "UAACAGGGGGCCACAGCAGAAGCGCUCACGUCGCAGCCCCUGCCAGAUUCUGGUGAAUCUGCGAAUCCUGCUGUAUUUCUC", "note": "[U25C U43C U67C A77U]", "self-cleavage": 0.08},
      {"variant": "UAACAGGGGGCCACAGCAGAAGCGCUCACGUCGCAGCCCCUGUCAGAUUCUGGAGUAUCUGCGGACUCUGCUGUAUAUCUC", "note": "[U25C U54A A56U A64G U66C]", "self-cleavage": 0.09},
      {"variant": "UAACAGGGGGCCACAGCAGAAGCGCUCACGUCGCAGCCCCAGUCAGAUUCAGGUGAAUCUGCGAAUUUUGCCGUAUAUCUC", "note": "[U25C U41A U51A C68U U72C]", "self-cleavage": 0.1},
      {"variant": "UAACAGGGGGCCACAGCAGAAGCGCUCACGUCGCAGCCCCUGACAGAUUCUGGUGAAUCUGCGAUUUCCGCUGUAUACCAC", "note": "[U25C U43A A65U U69C U78C U80A]", "self-cleavage": 0.17},
      {"variant": "UAACAGGGGGCCACAGCAGAAGCGCUCACGUCGCAGCCCCUGUCAGAUUCGGGUGAAUCUGCGAAUUCCGCUGUAUAUCAC", "note": "[U25C U51G U69C U80A]", "self-cleavage": 0.35},
      {"variant": "UAACAGGGGGCCACAGCAGAAGCGCUCACGUCGCAGCCCCUGCCAGAUUCUAGUGAAUCUGCGGAUUCUGCUGUAUAUCUC", "note": "[U25C U43C G52A A64G]", "self-cleavage": 0.14},
      {"variant": "UAACAGGGGGCCACAGCAGAAGCGCUCACGUCGCAGCCCCUGUCAGAUUCCGGUGACUCAGCGAAUUCUGCUGUAUAUCUC", "note": "[U25C U51C A57C U60A]", "self-cleavage": 0.09},
      {"variant": "UAACAGGGGGCCACAGCAGAAGCGCUCACGUCGCAGCCCCUGCCAGAUUCUGGUGAAUGUGCGAAUUCUGCUGUAUAUCUC", "note": "[U25C U43C C59G]", "self-cleavage": 0.2},
      {"variant": "UAACAGGGGGCCACAGCAGAAGCGCUCACGUCGCAGCCCCCGUCAGAUUCUGGUGAAUCUGCGAGUUCUGCUGUAUAUCUC", "note": "[U25C U41C A65G]", "self-cleavage": 0.21},
      {"variant": "UAACAGGGGGCCACAGCAGAAGCGCUCACGUCGCAGCCCCUGUCAGACUCUGGUGGAUCUGCGAAUUCUGCUGUAUAUCUC", "note": "[U25C U48C A56G]", "self-cleavage": 0.04},
      {"variant": "UAACAGGGGGCCACAGCAGAAGCGCUCACGUCGCAGCCCCCGUCAGAUUCAGGUGAAUCUGCGAAUUCUGCCGUAUAUCUC", "note": "[U25C U41C U51A U72C]", "self-cleavage": 0.06},
      {"variant": "UAACAGGGGGCCACAGCAGAAGCGCUCACGUCGCAGCCCCUGUCAGAUCCUGGUGAGUCUGCGAAUUCUGCUGAGUAUCUC", "note": "[U25C U49C A57G U74A A75G]", "self-cleavage": 0.13},
      {"variant": "UAACAGGGGGCCACAGCAGAAGCGCUCACGUCGCAGCCCCUGUCAGAUUCCGGUGAAUCUGCGAAUUCUACUGUAUAUCUC", "note": "[U25C U51C G70A]", "self-cleavage": 0.47},
      {"variant": "UAACAGGGGGCCACAGCAGAAGCGCUCACGUCGCAGCCCCUGACAGAUUCUGGUGAAUCUGCGGAUUCUGCUGUAUAUCUC", "note": "[U25C U43A A64G]", "self-cleavage": 0.37},
      {"variant": "UAACAGGGGGCCACAGCAGAAGCGCUCACGCCGCAGCCCCUGUCAGAUUCUGGCGAAUCUGUGAACUCUGCUGUAUAUCUC", "note": "[U25C U31C U54C C62U U66C]", "self-cleavage": 0.14},
      {"variant": "UAACAGGGGGCCACAGCAGAAGCGCUCACGUCGCAGCCCCUGUCAGACUCUGGUGAAUCUGCGAAUGCUGCUGUAUAUCUC", "note": "[U25C U48C U67G]", "self-cleavage": 0.11},
      {"variant": "UAACAGGGGGCCACAGCAGAAGCGCUCACGUCGCAGCCCCUGUCAGAUUCUGGAGAAUCUGCGAAUUCUGCUGUAUAUCGC", "note": "[U25C U54A U80G]", "self-cleavage": 0.17},
      {"variant": "UAACAGGGGGCCACAGCAGAAGCGCUCACGUCGCAGCCCCCGUCGGAUUCUGGUGAAUCUGCGAAUUCUGCUGUACGUCUC", "note": "[U25C U41C A45G U76C A77G]", "self-cleavage": 0.08},
      {"variant": "UAACAGGGGGCCACAGCAGAAGCGCUCACGUCGCAGCCCCAGUCAGAUUCUGGUGAAUCUGCGAAUUCUGCCGUAUACCUC", "note": "[U25C U41A U72C U78C]", "self-cleavage": 0.29},
      {"variant": "UAACAGGGGGCCACAGCAGAAGCGCUCACGUCGCAGCCCCCGUCAGAUUCUGGUGAAUCUGCGAAUUCUGCUGUAUAUCCC", "note": "[U25C U41C U80C]", "self-cleavage": 0.34},
      {"variant": "UAACAGGGGGCCACAGCAGAAGCGCUCACGUCGCAGCCCCUGUCAGACUCUGGUGAACCUGCGGAUUCUGCUGUAUAUCUC", "note": "[U25C U48C U58C A64G]", "self-cleavage": 0.06},
      {"variant": "UAACAGGGGGCCACAGCAGAAGCGCUCACGUCGCAGCCCCCGUCAGAUCCUGGUGAAUCUGCGAAUUCUGCUGCAUAUCUC", "note": "[U25C U41C U49C U74C]", "self-cleavage": 0.21},
      {"variant": "UAACAGGGGGCCACAGCAGAAGCGCUCACGUCGCAGCCCCUGUCAGACUCUGGUGAAUCUGCGGAUUCUGCUGCAUGUCUC", "note": "[U25C U48C A64G U74C A77G]", "self-cleavage": 0.06},
      {"variant": "UAACAGGGGGCCACAGCAGAAGCGCUCACGUCGCAGCCCCCGUCAGAUUCCGGUGAAUCUGCGAAUUCUGCUGUACAUCUC", "note": "[U25C U41C U51C U76C]", "self-cleavage": 0.2},
      {"variant": "UAACAGGGGGCCACAGCAGAAGCGCUCACGUCGCAGCCCCUGUCAGAUUCAGGUGAAUCUGUGAAUCCUGCUGCAUAUCUC", "note": "[U25C U51A C62U U67C U74C]", "self-cleavage": 0.06},
      {"variant": "UAACAGGGGGCCACAGCAGAAGCGCUCACGUCGCAGCCCCUGUCAGAUCCUGGUGAAUCUGCGAACUCUGCUGUAUAUCUC", "note": "[U25C U49C U66C]", "self-cleavage": 0.15},
      {"variant": "UAACAGGGGGCCACAGCAGAAGCGCUCACGGCGCUGCCCCUGUCAGAUUCUGGUGGAUCUGCGAAUUCUGCUGUAUAUCUC", "note": "[U25C U31G A35U A56G]", "self-cleavage": 0.15},
      {"variant": "UAACAGGGGGCCACAGCAGAAGCGCUCACGUCGCAGCCCCAGUCAGAUUCUGGUGAAUCUGCGUAUUCUGCUGCAUAUCUC", "note": "[U25C U41A A64U U74C]", "self-cleavage": 0.14},
      {"variant": "UAACAGGGGGCCACAGCAGAAGCGCUCACGUCGCAGCCCCUGUCAGAUUCUGGUGAAUCCGCGGAUUCUGCAGUAUAUCUC", "note": "[U25C U60C A64G U72A]", "self-cleavage": 0.19},
      {"variant": "UAACAGGGGGCCACAGCAGAAGCGCUCACGUCGCAGCCCCUGCCAGAUUCUGGUUAAUCUGCGAAUUCAGCUGUAUAUCUC", "note": "[U25C U43C G55U U69A]", "self-cleavage": 0.08},
      {"variant": "UAACAGGGGGCCACAGCAGAAGCGCUCACGUCGCAGCCCCUGUCAGAUUCUGGUGAAUCAGCGAAUUCUGCUGUUUAUCUC", "note": "[U25C U60A A75U]", "self-cleavage": 0.48},
      {"variant": "UAACAGGGGGCCACAGCAGAAGCGCUCACGUCGCAGCCCCUGCCUGAUUCUGGUGAAUCCGCGAAUUCUGCUGUAUAUCUC", "note": "[U25C U43C A45U U60C]", "self-cleavage": 0.13},
      {"variant": "UAACAGGGGGCCACAGCAGAAGCGCUCACGUCGCAGCCCCUGUCAGAUACUGGUGAAUACGUGAAUUCAGCUGUAUAUCUC", "note": "[U25C U49A C59A U60C C62U U69A]", "self-cleavage": 0.04}
    ]}
  ]
}
